Experimental data: paper PMC4336329 (PLoS ONE, 2015)
Among all 310,000 compounds or so, about 2,200 (0.71%) showed an effect of 50% or more. Effects have a minus sign here. The list shows a part of the results.

Molecular target: human ether-à-go-go-related gene (hERG) potassium channel (human, UniProt Q12809)
Test: primary screen, population patch clamp on CHO cells stably expressing hERG

Sequence of human ether-à-go-go-related gene (hERG) potassium channel (Q12809 whole entry, looked up): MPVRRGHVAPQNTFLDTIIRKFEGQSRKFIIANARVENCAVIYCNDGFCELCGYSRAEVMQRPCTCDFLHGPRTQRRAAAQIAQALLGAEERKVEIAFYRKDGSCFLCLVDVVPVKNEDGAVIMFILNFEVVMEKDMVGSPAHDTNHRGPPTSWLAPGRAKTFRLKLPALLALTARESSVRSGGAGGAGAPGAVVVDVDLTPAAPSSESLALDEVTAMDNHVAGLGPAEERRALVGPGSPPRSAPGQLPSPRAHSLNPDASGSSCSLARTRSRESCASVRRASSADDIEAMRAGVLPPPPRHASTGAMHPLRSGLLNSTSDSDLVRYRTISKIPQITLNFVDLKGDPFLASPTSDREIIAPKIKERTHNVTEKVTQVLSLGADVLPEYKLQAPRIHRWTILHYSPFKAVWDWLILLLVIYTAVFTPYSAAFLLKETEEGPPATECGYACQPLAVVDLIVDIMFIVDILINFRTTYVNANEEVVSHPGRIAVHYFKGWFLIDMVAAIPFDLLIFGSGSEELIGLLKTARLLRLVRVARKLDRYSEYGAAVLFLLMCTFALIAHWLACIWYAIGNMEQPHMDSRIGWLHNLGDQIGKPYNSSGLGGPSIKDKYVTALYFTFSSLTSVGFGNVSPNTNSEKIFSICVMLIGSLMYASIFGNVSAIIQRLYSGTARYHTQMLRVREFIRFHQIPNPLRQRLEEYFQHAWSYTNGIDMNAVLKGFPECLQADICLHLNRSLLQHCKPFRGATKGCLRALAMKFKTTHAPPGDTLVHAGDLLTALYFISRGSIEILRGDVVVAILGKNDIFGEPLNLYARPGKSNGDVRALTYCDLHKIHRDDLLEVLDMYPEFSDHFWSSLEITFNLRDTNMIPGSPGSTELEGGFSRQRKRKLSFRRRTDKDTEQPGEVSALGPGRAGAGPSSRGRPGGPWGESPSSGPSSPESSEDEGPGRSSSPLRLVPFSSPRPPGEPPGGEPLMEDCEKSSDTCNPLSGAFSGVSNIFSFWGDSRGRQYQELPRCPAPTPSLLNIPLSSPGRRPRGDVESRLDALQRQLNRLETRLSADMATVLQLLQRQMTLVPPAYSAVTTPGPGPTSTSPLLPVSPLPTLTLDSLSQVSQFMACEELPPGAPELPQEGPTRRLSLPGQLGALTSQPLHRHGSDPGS

For `CCOC(=O)c1c(C)[nH]c(C(=O)/C(C#N)=C/c2ccc(OCC)cc2)c1C`, which “hERG current change (%, negative = inhibition) at 1uM” value is on record?
Its value is 14.3%.

Which “hERG current change (%, negative = inhibition) at 1uM” value does the source give for `CCN(CC)S(=O)(=O)c1cccc(NC(=O)COC(=O)c2cccs2)c1` here?
The value was 9.82%.

How did the “hERG current change (%, negative = inhibition) at 1uM” value turn out when `CCCCCN(C(=O)CCC(=O)OCC(=O)c1ccc(C(C)CC)cc1)c1c(N)n(CCCC)c(=O)[nH]c1=O` (stereo not shown) was run?
The value was 5.92%.

How did the “hERG current change (%, negative = inhibition) at 1uM” value turn out when `N#Cc1ccccc1NC(=O)CSc1cn[nH]n1` was run?
The value was 5.64%.

How did the “hERG current change (%, negative = inhibition) at 1uM” value turn out when `Cc1nc2ccccc2nc1Nc1cccc(Cl)c1` was run?
The value was 15.5%.

Which “hERG current change (%, negative = inhibition) at 1uM” value does the source give for `C/C(=N/NS(=O)(=O)c1ccc(C(C)C)cc1)c1ccncc1` here?
The value was 10.3%.

Which “hERG current change (%, negative = inhibition) at 1uM” value does the source give for `CN(CCCNC(=O)C1CCN(S(=O)(=O)c2cccc3nsnc23)CC1)Cc1ccccc1` here?
The value was -0.292%.

`COCCNc1nc2nonc2nc1N1CCCC1c1nccs1` (stereo not shown) was tested. Which “hERG current change (%, negative = inhibition) at 1uM” value did it give?
Its value is 19.5%.

How did the “hERG current change (%, negative = inhibition) at 1uM” value turn out when `O=C(C1=C[C@H](C2CC2)C[C@H](OCCCCO)O1)N1CCN(Cc2ccccc2)CC1` was run?
The value was -1.32%.

With `CCCCSCc1ccc(C(=O)O)o1` as the compound, how does the “hERG current change (%, negative = inhibition) at 1uM” value read?
Its value is -9.6%.

Which “hERG current change (%, negative = inhibition) at 1uM” value does the source give for `COC(c1ccccc1)c1nnc(CCC(=O)NC2C3CC4CC(C3)CC2C4)o1` (stereo not shown) here?
Its value is 6.83%.

Which “hERG current change (%, negative = inhibition) at 1uM” value does the source give for `Cc1ccccc1-c1cc(=O)c2c(O)cccc2o1` here?
Its value is 4.06%.

`Cn1c(=NC(=O)c2ccccc2[N+](=O)[O-])sc2cc(S(C)(=O)=O)ccc21` was tested. Which “hERG current change (%, negative = inhibition) at 1uM” value did it give?
The value was 3.19%.

`COCc1ccc(C(=O)NCC2(N3CCCCC3)CCCCC2)cc1.O=C(O)C(=O)O` was tested. Which “hERG current change (%, negative = inhibition) at 1uM” value did it give?
Its value is 1.67%.

`CCCn1nc2cc(C(=O)NCc3ccc(OC)cc3)ccc2c1OCC` was tested. Which “hERG current change (%, negative = inhibition) at 1uM” value did it give?
Its value is 15.9%.

With `CCC(C)(C)C(=O)Nc1ncc(S(=O)(=O)c2ccc([N+](=O)[O-])cc2)s1` as the compound, how does the “hERG current change (%, negative = inhibition) at 1uM” value read?
The value was 7.24%.

Which “hERG current change (%, negative = inhibition) at 1uM” value does the source give for `Cc1cccc(OCc2nnc(SC(C)C(=O)O)n2-c2ccccc2)c1` (stereo not shown) here?
The value was 9%.

With `O=C(/C=C/c1ccccc1)NC(NC(=S)Nc1cccc(O)c1)C(Cl)(Cl)Cl` (stereo not shown) as the compound, how does the “hERG current change (%, negative = inhibition) at 1uM” value read?
The value was 6.18%.

With `Cn1c(=O)n(C)c2cc(NC(=O)COc3ccc(F)cc3)ccc21` as the compound, how does the “hERG current change (%, negative = inhibition) at 1uM” value read?
The value was -3.2%.

For `O=C(/C=C/c1ccc(Br)o1)OCc1ccccc1`, which “hERG current change (%, negative = inhibition) at 1uM” value is on record?
The value was 7.92%.

`CCOC(=O)C(CC)n1cnc2c(oc3ccccc32)c1=O` (stereo not shown) was tested. Which “hERG current change (%, negative = inhibition) at 1uM” value did it give?
Its value is 8.78%.

With `CCOC(=O)[C@@H]1[C@H]2COc3ccccc3[C@H]2N2C(=O)N(c3ccc(C)cc3)C(=O)[C@]12C` as the compound, how does the “hERG current change (%, negative = inhibition) at 1uM” value read?
The value was 6.82%.

For `COc1ccc(CCNC(=O)COC(=O)C2CC2)cc1`, which “hERG current change (%, negative = inhibition) at 1uM” value is on record?
The value was 6.96%.

`CCCCOc1nc2ccccc2c(=O)n1-c1ccccc1` was tested. Which “hERG current change (%, negative = inhibition) at 1uM” value did it give?
The value was 2.24%.

For `CN(Cc1ccccc1Cl)C(=O)C1CCC(=O)N(CCc2cccc(F)c2)C1` (stereo not shown), which “hERG current change (%, negative = inhibition) at 1uM” value is on record?
Its value is 0.761%.

With `Cc1nc2c(C)cccn2c(=O)c1NC(=O)c1ccc(Br)o1` as the compound, how does the “hERG current change (%, negative = inhibition) at 1uM” value read?
The value was 12.7%.

With `Cc1cc(NC(=O)CCC(=O)N(CC(=O)NCC2CCCO2)c2ccc(Cl)c(Cl)c2)no1` (stereo not shown) as the compound, how does the “hERG current change (%, negative = inhibition) at 1uM” value read?
The value was 9.22%.

How did the “hERG current change (%, negative = inhibition) at 1uM” value turn out when `CC(=O)N[C@H]1[C@H](OC2CCCCC2)O[C@H](COC(C)=O)[C@@H](OC(C)=O)[C@@H]1OC(C)=O` was run?
Its value is 10.4%.

Which “hERG current change (%, negative = inhibition) at 1uM” value does the source give for `O=C1[C@@H]2Cc3c([nH]c4ccccc34)C(c3ccc(Cl)cc3)N2C(=O)CN1CCO` (stereo partly shown) here?
The value was 19%.

For `CCOC(=O)C(=NC1CCS(=O)(=O)C1)NNc1ccccc1Cl` (stereo not shown), which “hERG current change (%, negative = inhibition) at 1uM” value is on record?
The value was 4%.

How did the “hERG current change (%, negative = inhibition) at 1uM” value turn out when `COc1ccc(NC(=S)NC(=O)c2ccc(Br)o2)cc1` was run?
Its value is 14.9%.

`COC(=O)c1ccc(Cc2ccc(C(=O)OC)o2)o1` was tested. Which “hERG current change (%, negative = inhibition) at 1uM” value did it give?
Its value is 15.8%.

How did the “hERG current change (%, negative = inhibition) at 1uM” value turn out when `O=c1sc(N2CCN(c3ccccc3F)CC2)nc2ccsc12` was run?
The value was 5.34%.

With `Cc1cccc(N2C(=O)CC(n3ccnc3)C2=O)c1C` (stereo not shown) as the compound, how does the “hERG current change (%, negative = inhibition) at 1uM” value read?
Its value is 13.7%.

How did the “hERG current change (%, negative = inhibition) at 1uM” value turn out when `COCCCNC(=O)c1ccccc1NS(=O)(=O)c1ccc(C)cc1` was run?
The value was 3.86%.

For `COc1ccccc1N1CCN(C(=O)CCc2nnc3ccc(N4CCCC4)nn23)CC1`, which “hERG current change (%, negative = inhibition) at 1uM” value is on record?
Its value is -1.17%.

Which “hERG current change (%, negative = inhibition) at 1uM” value does the source give for `C=CCn1c(-c2csc3c2CCC(C)C3)n[nH]c1=S` (stereo not shown) here?
Its value is 7.01%.

How did the “hERG current change (%, negative = inhibition) at 1uM” value turn out when `O=C(N/N=C/c1ccncc1)c1cc2ccccc2o1` was run?
Its value is 6.93%.

For `CC1(C)C(C=C(Cl)Cl)C1C(=O)N(Cc1ccccc1Cl)C1CCS(=O)(=O)C1` (stereo not shown), which “hERG current change (%, negative = inhibition) at 1uM” value is on record?
The value was 12.1%.

`CSc1nnc(Nc2ccccc2C)s1` was tested. Which “hERG current change (%, negative = inhibition) at 1uM” value did it give?
Its value is 15.7%.

`CCCC(C)C(=O)Nc1cc(S(=O)(=O)N2CCCCC2)ccc1N1CCOCC1` (stereo not shown) was tested. Which “hERG current change (%, negative = inhibition) at 1uM” value did it give?
Its value is 3.44%.

With `O=C(NCc1cccs1)c1nc(-c2cccs2)no1` as the compound, how does the “hERG current change (%, negative = inhibition) at 1uM” value read?
The value was 7.99%.

`O=[N+]([O-])c1cc(CN2CCN(c3ccccc3)CC2)c(O)c2ncccc12` was tested. Which “hERG current change (%, negative = inhibition) at 1uM” value did it give?
Its value is 12.1%.

How did the “hERG current change (%, negative = inhibition) at 1uM” value turn out when `O=C(O)CCNC1C=CS(=O)(=O)C1` (stereo not shown) was run?
Its value is 10.2%.

Which “hERG current change (%, negative = inhibition) at 1uM” value does the source give for `COc1ccccc1/C=N/OCC(=O)NCc1ccc2c(c1)OCO2` here?
Its value is 5.44%.

Which “hERG current change (%, negative = inhibition) at 1uM” value does the source give for `CCOc1ncccc1C(=O)OCC(=O)Nc1ccc(C)c(S(=O)(=O)N(C)C)c1` here?
Its value is -10.7%.

`CCOc1ccc(CN2CCN(C3CCSCC3)CC2CCO)cc1` (stereo not shown) was tested. Which “hERG current change (%, negative = inhibition) at 1uM” value did it give?
The value was -76.2%.

How did the “hERG current change (%, negative = inhibition) at 1uM” value turn out when `CCn1c(C)c(C)c2cc(C(=O)N3CCCC3)ccc21` was run?
The value was 1.63%.

Which “hERG current change (%, negative = inhibition) at 1uM” value does the source give for `COc1ccc(C(=O)OC(C)C(=O)NCC2CCCCC2)cc1S(=O)(=O)N1CCOCC1` (stereo not shown) here?
Its value is -7.96%.

`O=C(N/N=C/c1cc2ccccc2nc1Cl)/C(=C/c1cccs1)NC(=O)c1ccccc1` was tested. Which “hERG current change (%, negative = inhibition) at 1uM” value did it give?
The value was 2.16%.

For `O=C(O)c1ccccc1/C=N/NC(=O)C1CCCC1`, which “hERG current change (%, negative = inhibition) at 1uM” value is on record?
Its value is 16.4%.

`COc1ccc(C)cc1NC(=O)COC(=O)c1ccc2c(c1)OCO2` was tested. Which “hERG current change (%, negative = inhibition) at 1uM” value did it give?
Its value is 2.9%.

With `Cc1ccc(C)c(N(C)C(=O)CCS(=O)(=O)c2cccc3nonc23)c1` as the compound, how does the “hERG current change (%, negative = inhibition) at 1uM” value read?
The value was 16.3%.

For `CCCCNC(=O)N1CCN(C/C=C/c2ccccc2)CC1`, which “hERG current change (%, negative = inhibition) at 1uM” value is on record?
Its value is -5.72%.

With `OC(COc1ccccc1)CN1CCN(c2ncccn2)CC1` (stereo not shown) as the compound, how does the “hERG current change (%, negative = inhibition) at 1uM” value read?
Its value is -3.99%.

`CCN(CC)S(=O)(=O)c1ccc(OC)nc1` was tested. Which “hERG current change (%, negative = inhibition) at 1uM” value did it give?
Its value is -5.33%.

With `Cc1c2cccn2cc[n+]1C.[I-]` as the compound, how does the “hERG current change (%, negative = inhibition) at 1uM” value read?
The value was 3.78%.

How did the “hERG current change (%, negative = inhibition) at 1uM” value turn out when `CC(Sc1nnc2ccccn12)C(=O)Nc1ccc2c(c1)OCO2` (stereo not shown) was run?
The value was 5.15%.
